Test results as given in the supplement of paper PMC12578646, “Prodrug florfenicol amine is activated by intrinsic resistance to target Mycobacterium abscessus” (Nature Microbiology, 2025).

Legend:
[1] = tested on: Mycobacterium abscessus ATCC 19977 WhiB7 R76del; test: growth relative to untreated wells; higher = more growth (less inhibition)
Description: (§1)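 384-well two-fold dose series, two replicates; 5 days at 37 °C, then 24 h with resazurin; fluorescence scaled to growth and killed controls.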

[2] = tested on: Mycobacterium abscessus ATCC 19977 ΔwhiB7; test: growth relative to untreated wells; higher = more growth
Description: (§2)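 Two-fold dose series, three replicates; 5 days at 37 °C, then 24 h with resazurin; fluorescence scaled to growth and killed controls.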

[3] = tested on: Mycobacterium abscessus ATCC 19977 Δcat; test: as above
Description: as §2

[4] = tested on: Mycobacterium abscessus ATCC 19977; test: as above
Description: as §2

[5] = tested on: Mycobacterium abscessus ATCC 19977 Eis2 Y255*
Description: as §1

[6] = tested on: Mycobacterium abscessus ATCC 19977 WhiB7 R76del
Description: as §1

[7] = tested on: Mycobacterium abscessus ATCC 19977 ΔwhiB7
Description: as §1

[8] = tested on: Mycobacterium abscessus ATCC 19977 Eis2 Y284*
Description: as §1

[9] = tested on: Mycobacterium abscessus ATCC 19977 WhiB7 T70fs
Description: as §1

[10] = tested on: Mycobacterium abscessus ATCC 19977 Eis2 T258R
Description: as §1

[11] = tested on: Mycobacterium abscessus ATCC 19977 Δeis2
Description: as §1

[12] = tested on: Mycobacterium abscessus ATCC 19977 Eis2 Y227D
Description: as §1

[13] = tested on: Mycobacterium abscessus ATCC 19977 WhiB7 L37P
Description: as §1

[14] = tested on: Mycobacterium abscessus ATCC 19977 Eis2 E120fs
Description: as §1

[15] = tested on: Mycobacterium abscessus ATCC 19977 WhiB7 F24fs
Description: as §1

[16] = tested on: Mycobacterium abscessus ATCC 19977 WhiB7 A51T
Description: as §1

CS(=O)(=O)c1ccc([C@@H](O)[C@@H](CF)NC(=O)C(Cl)Cl)cc1 [florfenicol]
growth [%]
Conditions | [1] | [2] | [3] | [4]
0.5 µg/mL | 102 | – | – | –
1 µg/mL | 106 | 95.2 | 86.1 | 97
2 µg/mL | 100.3 | 102 | 94.4 | 105
4 µg/mL | 116 | 99.6 | 90.5 | 100
8 µg/mL | 118 | 104 | 84.8 | 94
16 µg/mL | 104 | 101 | 80.5 | 84.6
32 µg/mL | 35.6 | 94.4 | 63 | 53.4
64 µg/mL | 8.92 | 73 | 28.9 | 3.19
128 µg/mL | 1.6 | 8.69 | -0.197 | -3.6
256 µg/mL | -2.08 | 10.2 | -3.01 | -2.96
512 µg/mL | -2.04 | 9.08 | -0.942 | 2.87
1024 µg/mL | -1.87 | – | – | –

Conditions | IC50 [mg/L]
[5] | 23.6 (≈ 65.9 µM)
[6] | 28.9 (≈ 80.7 µM)
[7] | 43.9 (≈ 122 µM)
[8] | 17.9 (≈ 50 µM)
[9] | 33.1 (≈ 92.5 µM)
[10] | 18.5 (≈ 51.7 µM)
[11] | 20.9 (≈ 58.2 µM)
[12] | 30 (≈ 83.8 µM)
[13] | 39.4 (≈ 110 µM)
[14] | 29.8 (≈ 83.1 µM)
[15] | 29.7 (≈ 82.9 µM)
[16] | 41.1 (≈ 115 µM)

CN(C)[C@@H]1C(O)=C(C(N)=O)C(=O)[C@@]2(O)C(O)=C3C(=O)c4c(O)c(NC(=O)CN5CCCC5)cc(F)c4C[C@H]3C[C@@H]12 [eravacycline]
[1]
Conditions | growth [%]
0.003125 µg/mL | 93
0.00625 µg/mL | 104
0.0125 µg/mL | 96.4
0.025 µg/mL | 105
0.05 µg/mL | 88.9
0.1 µg/mL | 102.4
0.2 µg/mL | 121
0.4 µg/mL | 4.55
0.8 µg/mL | -3.35
1.6 µg/mL | -4.65
3.2 µg/mL | -5.75
6.4 µg/mL | -6.76

Conditions | IC50 [mg/L]
[5] | 0.441 (≈ 0.79 µM)
[6] | 0.344 (≈ 0.615 µM)
[7] | 0.231 (≈ 0.413 µM)
[8] | 0.435 (≈ 0.78 µM)
[9] | 0.354 (≈ 0.634 µM)
[10] | 0.386 (≈ 0.691 µM)
[11] | 0.3 (≈ 0.537 µM)
[12] | 0.418 (≈ 0.748 µM)
[13] | 0.345 (≈ 0.618 µM)
[14] | 0.417 (≈ 0.747 µM)
[15] | 0.329 (≈ 0.59 µM)
[16] | 0.23 (≈ 0.411 µM)

O=C(N[C@H](CO)[C@H](O)c1ccc([N+](=O)[O-])cc1)C(Cl)Cl [chloramphenicol]
growth [%]
Conditions | [1] | [2] | [3] | [4]
0.5 µg/mL | 95.8 | – | – | –
1 µg/mL | 102 | 98 | 96.6 | 95.3
2 µg/mL | 106 | 104 | 103 | 94.6
4 µg/mL | 111.3 | 107 | 102 | 107
8 µg/mL | 119.9 | 110 | 91.9 | 99.6
16 µg/mL | 75.1 | 114 | 72.2 | 115
32 µg/mL | 26.5 | 105 | 49.3 | 112
64 µg/mL | 6.44 | 75.9 | 6.65 | 112
128 µg/mL | -0.757 | 9.35 | 0.934 | 115
256 µg/mL | -2.71 | 2.64 | -0.778 | 94
512 µg/mL | -2.92 | 3.44 | 0.377 | 20.2
1024 µg/mL | -2.76 | – | – | –

Conditions | IC50 [mg/L]
[5] | 210 (≈ 649 µM)
[6] | 23.1 (≈ 71.6 µM)
[7] | 31.1 (≈ 96.4 µM)
[8] | 176 (≈ 546 µM)
[9] | 24.8 (≈ 76.6 µM)
[10] | 146 (≈ 453 µM)
[11] | 133 (≈ 413 µM)
[12] | 262 (≈ 811 µM)
[13] | 31.8 (≈ 98.4 µM)
[14] | 246 (≈ 760 µM)
[15] | 23.9 (≈ 73.9 µM)
[16] | 31.5 (≈ 97.4 µM)

CN[C@@H]1[C@H](O)[C@H](NC)[C@H]2O[C@@]3(O)C(=O)C[C@@H](C)O[C@H]3O[C@@H]2[C@H]1O [spectinomycin]
[1]
Conditions | growth [%]
0.5 µg/mL | 101
1 µg/mL | 115
2 µg/mL | 110
4 µg/mL | 130
8 µg/mL | 130.6
16 µg/mL | 137
32 µg/mL | 41.5
64 µg/mL | 1.53
128 µg/mL | 0.864
256 µg/mL | -0.716
512 µg/mL | -2.34
1024 µg/mL | 1.02

Conditions | IC50 [mg/L]
[5] | 234 (≈ 703 µM)
[6] | 30.6 (≈ 92.2 µM)
[7] | 30.2 (≈ 90.8 µM)
[8] | 247 (≈ 743 µM)
[9] | 31.4 (≈ 94.4 µM)
[10] | 207 (≈ 623 µM)
[11] | 260 (≈ 784 µM)
[12] | 223 (≈ 671 µM)
[13] | 29.5 (≈ 88.6 µM)
[14] | 312 (≈ 939 µM)
[15] | 29.6 (≈ 89 µM)
[16] | 35 (≈ 105 µM)

CN(C)c1cc(CNCC(C)(C)C)c(O)c2c1C[C@H]1C[C@H]3[C@H](N(C)C)C(O)=C(C(N)=O)C(=O)[C@@]3(O)C(O)=C1C2=O [omadacycline]
[1]
Conditions | growth [%]
0.00625 µg/mL | 94.2
0.0125 µg/mL | 99.6
0.025 µg/mL | 95.9
0.05 µg/mL | 105
0.1 µg/mL | 96.5
0.2 µg/mL | 98.8
0.4 µg/mL | 104
0.8 µg/mL | -0.503
1.6 µg/mL | -6.91
3.2 µg/mL | -8.61
6.4 µg/mL | -8.98
12.8 µg/mL | -8.344

Conditions | IC50 [mg/L]
[5] | 0.908 (≈ 1.63 µM)
[6] | 0.482 (≈ 0.865 µM)
[7] | 0.557 (≈ 1 µM)
[8] | 1.01 (≈ 1.82 µM)
[9] | 0.497 (≈ 0.893 µM)
[10] | 0.92 (≈ 1.65 µM)
[11] | 0.845 (≈ 1.52 µM)
[12] | 0.889 (≈ 1.6 µM)
[13] | 0.505 (≈ 0.908 µM)
[14] | 0.921 (≈ 1.65 µM)
[15] | 0.476 (≈ 0.855 µM)
[16] | 0.61 (≈ 1.1 µM)

CC[C@H]1OC(=O)[C@H](C)[C@@H](O[C@H]2C[C@@](C)(OC)[C@@H](O)[C@H](C)O2)[C@H](C)[C@@H](O[C@@H]2O[C@H](C)C[C@H](N(C)C)[C@H]2O)[C@](C)(OC)C[C@@H](C)C(=O)[C@H](C)[C@@H](O)[C@]1(C)O [clarithromycin]
[1]
Conditions | growth [%]
0.03125 µg/mL | 122
0.0625 µg/mL | 45.1
0.125 µg/mL | 3.11
0.25 µg/mL | -1.96
0.5 µg/mL | -1.89
1 µg/mL | -3.24
2 µg/mL | -3.05
4 µg/mL | -2.81
8 µg/mL | -2.83
16 µg/mL | -2.78
32 µg/mL | -2.6
64 µg/mL | -1.21

Conditions | IC50 [mg/L]
[5] | 0.0888 (≈ 0.119 µM)
[6] | 0.0607 (≈ 0.0811 µM)
[7] | 0.065 (≈ 0.0869 µM)
[8] | 0.0962 (≈ 0.129 µM)
[9] | 0.0573 (≈ 0.0766 µM)
[10] | 0.0724 (≈ 0.0968 µM)
[11] | 0.0707 (≈ 0.0946 µM)
[12] | 0.0945 (≈ 0.126 µM)
[13] | 0.0633 (≈ 0.0846 µM)
[14] | 0.112 (≈ 0.149 µM)
[15] | 0.0583 (≈ 0.0779 µM)
[16] | 0.0626 (≈ 0.0837 µM)

In brackets after ≈: the same amount, converted by molar mass. M. abscessus ATCC 19977 and its deletion, point and complemented mutants after 5 days of drug at 37 °C plus 24 h of resazurin. Growth in % of untreated wells at the dose given (lower = more inhibition); checkerboards give % inhibition (higher = more inhibition); IC50 from the fitted curve (lower = more potent). No active / inactive call. IC50 values come from the same 384-well curves. Growth is not capped and can exceed 100%. The direction of the checkerboard scale is read from the raw signals. Capreomycin is a mixture.
